These results are taken from ChEMBL document CHEMBL4888484, “Replenishing the malaria drug discovery pipeline: Screening and hit evaluation of the MMV Hit Generation Library 1 (HGL1) against asexual blood stage Plasmodium falciparum ,using a nano luciferase reporter read-out” (2022).

In all, about 150,000 compounds went through this assay and about 540 (0.36%) showed an effect of 50% or more. This is one part of the list.

The test system of this assay is Plasmodium falciparum. The experiment in a line: Primary screen in NF54 nanoGlo assay, in single point, at 2uM, 72h; a lower Z score goes with more inhibition. The assay is classed as functional, Erythrocyte. Particulars: timepoint 72 hour.
Usually % Inhibition stands for the relative decrease from the control value, in per cent. In the case of `CC[C@H]1CCCN(c2nc(OC)cc(OC)n2)CC1`, the “% Inhibition” value was -11% and the Z score came to 2.36.
Consider `O=C(Nc1nc(-c2ccc3c(c2)CCCC3)cs1)c1cnns1`, for which the “% Inhibition” value was -39% and the Z score is listed as 4.6.
Regarding `Cc1ccc(NC(=O)CC2CCN(C)CC2)cc1`, the “% Inhibition” value was -13% and the Z score is listed as 1.82.
On the same counts, the results for `CS(=O)(=O)N1CCC(C(=O)NC(c2ccccc2)c2ccccc2)CC1` are -9% and 1.63.
With `CN1C[C@H](O)C[C@H]1c1nnc2n1CCN(S(=O)(=O)c1ccc(F)cc1)CC2`, the “% Inhibition” value is given as -5% and the Z score is reported as 0.56.
For `N#Cc1csc(C(=O)Nc2cnccc2-c2cccc(F)c2)c1` the same measures were 3% and -0.47.
On the same counts, the results for `Cc1nn(C)c(C)c1NC(=O)NCc1csc(N2CCOCC2)n1` are -16% and 1.64.
On to `COC(=O)CCN(CC(=O)N[C@@H](C)c1ccc(C)c(C)c1)CC(C)C`, for which the “% Inhibition” value was -16% and the Z score turned out to be 2.01.
For the compound `Cc1ccc(C(=O)NCc2cccnc2Oc2ccc(F)cc2F)cn1`, the “% Inhibition” value is -14% and the Z score came to 2.01.
For `Cc1ccccc1S(=O)(=O)N1C(=O)c2ccccc2N(S(=O)(=O)c2ccccc2C)C(=O)c2ccccc21` the same measures were -12% and 2.
With `O=C(CCc1nc(CS(=O)(=O)c2ccc(Cl)cc2)no1)Nc1cccc2c1CCCC2`, the “% Inhibition” value is listed as 7% and the Z score is recorded as -1.25.
For `CCN(CC)c1ccc(CNC(=O)[C@H]2CCS(=O)(=O)C2)cc1F` the same measures were -4% and 0.54.
On to `COc1cccc(OC2CN(Cc3c(C)nn(CCO)c3C)C2)c1`, for which the “% Inhibition” value is -14% and the Z score was found to be 2.34.
As to `Cc1ccc(-n2nc3c(N4CCN(C(=O)Nc5cc(C)ccc5C)CC4)nnc(C)c3c2C)cc1`, the “% Inhibition” value is given as 9% and the Z score is -1.02.
In the case of `COCC1CN(C(=O)NC2C3CCc4ccccc4C32)CC(C)O1` (centres undefined), the “% Inhibition” value is -14% and the Z score worked out at 1.91.
For `C[C@]1(c2cnccn2)NC(=O)N(Cc2cc(F)ccc2OC(F)F)C1=O`, the “% Inhibition” value is listed as -4% and the Z score was determined as 0.57.
As for `COCCCn1cnc2c(-c3ccccc3)cn(CC(=O)Nc3ccc(C)c(F)c3)c2c1=O`, the “% Inhibition” value is reported as -8% and the Z score came out at 1.17.
`CCn1cc(CC(=O)NCCN2CCOCC2)c2cccnc21`: the “% Inhibition” value is reported as -10% and the Z score came to 1.21.
On the same counts, the results for `Cc1cc(C(=O)N[C@@H](C)CN2CCc3ccccc3C2)cc2sc(N)nc12` are 4% and -0.73.
Turning to `C[C@H]1C[C@@H](CO)CCN1C(=O)OC(C)(C)C`, the “% Inhibition” value is reported as -12% and the Z score is 1.26.
As for `Cc1nc(-c2nccn2CCc2nc(-c3cccnc3)n[nH]2)co1`, the “% Inhibition” value is given as -16% and the Z score was determined as 1.48.
For `c1ccc(C2NC3c4ccccc4OCC3C2c2ccccc2)cc1` (centres undefined) the same measures were -14% and 1.6.
For the compound `Cc1ccc(CN2CCC[C@H]2c2nccs2)s1`, the “% Inhibition” value is recorded as -10% and the Z score is 1.38.
Turning to `CC1(C)[C@H](C(=O)Nc2ccccc2N)CC[C@]1(C)C(=O)O`, the “% Inhibition” value is reported as 0% and the Z score stood at 0.05.
On to `Cc1ccc(S(=O)(=O)N2CCN(C(=O)c3ccc4c(c3)nc(C)n4-c3ccccc3)CC2)cc1`, for which the “% Inhibition” value is reported as -4% and the Z score is 0.43.
For the compound `Cc1ccsc1C(=O)Nc1scnc1-c1ccc(F)cc1`, the “% Inhibition” value was determined as 0% and the Z score stood at 0.01.
For `CN1CCN(CCOc2ccc(-c3cnc4cncn4c3)cc2)CC1` the same measures were -7% and 0.64.
For `CC(C)CNC(=O)C[C@H](c1ccc(C(F)(F)F)cc1)c1cn(Cc2ccccc2)c2ccccc12` the same measures were -6% and 0.77.
On the same counts, the results for `Cc1ccc(S(=O)(=O)c2c(N)n(-c3ccc4c(c3)OCCO4)c3nc4ccccc4nc23)cc1` are 6% and -0.5.
Turning to `Cc1ccc(NC(=O)C2CCCN(S(=O)(=O)c3ccc4c(c3)NC(=O)C(C)O4)C2)c(C)c1` (centres undefined), the “% Inhibition” value is -9% and the Z score came to 1.35.
On the same counts, the results for `CCOc1ccc(N(C)S(=O)(=O)c2ccc(-c3cc(C(F)(F)F)n[nH]3)s2)cc1` are -2% and 0.3.
Take `N#CCCC1(CCC#N)S(=O)(=O)CC(c2ccc(Cl)cc2)CS1(=O)=O`: the “% Inhibition” value is -3% and the Z score came out at 0.58.
For `CC(NS(=O)(=O)N1CC2CCC1C2)C(O)Cc1ccccc1` (centres undefined) the same measures were -6% and 0.99.
For `COc1ccccc1N1CCN(C(=O)c2ccc(Cn3cncn3)cc2)CC1` the same measures were -3% and 0.33.
With `Cc1nnc(NC(=O)N2CCN(Cc3ccncc3)CC2)s1`, the “% Inhibition” value is listed as 10% and the Z score was -1.44.
For `CN1CCC(NC(=O)c2n[nH]c3c2CN(C(=O)c2cccc(F)c2)CC3)CC1` the same measures were -12% and 2.18.
With `CCN(C)c1ccccc1NCc1nc(C)cs1`, the “% Inhibition” value turned out to be 4% and the Z score is -0.41.
For `Cc1nc2cc(-c3ccc(Br)cc3)nn2c(N)c1-c1ccccc1` the same measures were 2% and -0.3.
For `O=S(=O)(Nc1ccc2cc[nH]c2c1)c1cccc(Cl)c1` the same measures were 0% and 0.02.
On to `O=C(c1cn2ccnc(-c3ccc(F)cc3)c2n1)N1CCCCCC1`, for which the “% Inhibition” value was -11% and the Z score amounted to 1.6.
On the same counts, the results for `CO[C@H]1C[C@@H](Cn2ccc(NC(=O)OC(C)(C)C)n2)N(Cc2c[nH]nc2C)C1` are 8% and -1.2.
For `COc1cccc(N2CCN(c3ccnc(N4CCN(c5cccc(OC)c5)CC4)n3)CC2)c1` the same measures were 14% and -1.67.
On the same counts, the results for `CCCc1nnc(NC(=O)N[C@@H](C)Cc2c(C)noc2C)s1` are -17% and 1.54.
Turning to `N#Cc1nc(C(c2ccccc2)c2ccccc2)oc1NCCCn1ccnc1`, the “% Inhibition” value came to 7% and the Z score is on record as -0.96.
On the same counts, the results for `Cc1cc(Cl)cc(CN[C@H]2CCOC3(CC(C(=O)O)C3)C2)c1` (some centres undefined) are 19% and -2.46.
On the same counts, the results for `CCOCCCC(=O)Nc1c(F)cccc1NC(=O)OC(C)(C)C` are -4% and 0.48.
For the compound `Cc1cc(C)n(CCC(=O)N2CCC(n3c(C)cnc3C3CCC3)CC2)n1`, the “% Inhibition” value was -13% and the Z score was 1.72.
In the case of `CN(CCc1ccccc1)c1cc([C@H]2C[C@H](N)C2)nc(C2CC2)n1`, the “% Inhibition” value worked out at 5% and the Z score is listed as -0.87.
On the same counts, the results for `CNC(=O)[C@@H]1CCCN1C(=O)CNC(=O)c1ncccc1O` are -9% and 1.84.
For `Clc1ccc([C@@H]2CN(CCCc3cccnc3)CCO2)cc1` the same measures were -6% and 1.19.
On the same counts, the results for `CC1(C(N)=O)CN(C[C@@H](O)c2ccc(C(F)(F)F)cc2)C1` are -15% and 1.59.
Regarding `CN(C)Cc1cc(CNC2CC(C)(c3ccccc3)C2)no1` (centres undefined), the “% Inhibition” value was -6% and the Z score is 0.85.
